Assay results reported in the RNAGym collection of RNA variant scans (doi:10.7554/elife.90254).
Read counts are not given, so values of variants with three or more changes are uncertain.

B1: LINE1-mini (parent)
chain: GGCAGAGCUCAACACAGCGUGGCAAAGUGGCUGUGGCUAGACUGCC

Variants of: B1
Assay: self-cleavage, relative activity (ratio to wild type); higher = more cleavage; in vitro, sequencing; the parent is a self-cleaving ribozyme

With CGCAGAGCUCAACACAGCGUGGCAAGGUGGCUGUGUCUAGACUGCC [G1C A26G G36U] as the variant, how does the self-cleavage read?
The self-cleavage was 0.01.

Which self-cleavage does the source give for CGCAGAGCUCAACACAGCGUGGCAAAGUGGCUGUGGCUGGACUGCU [G1C A39G C46U] here?
The self-cleavage was 0.02.

For CGCAGAGCUCAACACAGCGUGGCAAAGUGGCUGUGGCUAGGCUGCA [G1C A41G C46A], which self-cleavage is on record?
The self-cleavage was 0.05.

With CGAAGGGCUCGACACAGCGUGUCAAAGUGGCUGUGGCUAGAUUGCC [G1C C3A A6G A11G G22U C42U] as the variant, how does the self-cleavage read?
Its self-cleavage is 0.01.

For CGAAGAGCUCAACACAGCGUGGCAAUGUGGCUGUGGCUAGACUGCC [G1C C3A A26U], which self-cleavage is on record?
The self-cleavage was 0.13.

With CGAAGAGCUCAACACAGCGUGGCAAAGUGGCUGUGGCUAGUCUGAC [G1C C3A A41U C45A] as the variant, how does the self-cleavage read?
Its self-cleavage is 0.21.

Which self-cleavage does the source give for CGAAGAGGUCAACACAGCGUGGCAAAGUGGCUGUGGCUAGACUGCC [G1C C3A C8G] here?
The self-cleavage was 0.04.

For CGAAGAGCUCAACACAGCGUGGCAAAGUGGAUGCGGCUCGAGUGCC [G1C C3A C31A U34C A39C C42G], which self-cleavage is on record?
Its self-cleavage is 0.03.

Which self-cleavage does the source give for CGAAGAGCUCAACACAGCGUAGCAAAGUGGCUGUGGCUAGACUGCC [G1C C3A G21A] here?
Its self-cleavage is 0.39.

Which self-cleavage does the source give for CGGAGAGCUCAACAAAGCGUAGCACAGUGGCUGUGGGUAGCCUGCC [G1C C3G C15A G21A A25C C37G A41C] here?
Its self-cleavage is 0.02.

With CGGAGAGCUCAACACAGCGUGGCAAAGUGCAUGUGGCUAGCCUGCC [G1C C3G G30C C31A A41C] as the variant, how does the self-cleavage read?
Its self-cleavage is 0.04.

For CGGAGAGCUCAACACAGCGUGGCAAAGUGGCUGAGGCUAGACUGCC [G1C C3G U34A], which self-cleavage is on record?
Its self-cleavage is 0.01.

Which self-cleavage does the source give for CGUGGAGAUCAACACAGCGUGGCAAGUUGGCUGUGGCUAGACUGAU [G1C C3U A4G C8A A26G G27U C45A C46U] here?
Its self-cleavage is 0.07.

Which self-cleavage does the source give for CGUAGUGCGCAACACAGCGUGGCAACGUGGCUGUGGCUAGACUGCC [G1C C3U A6U U9G A26C] here?
Its self-cleavage is 0.07.

For CGUAGAGCUCAACGCAGCGUGGCAAAGUGGCUUUGGCUAGACUGAC [G1C C3U A14G G33U C45A], which self-cleavage is on record?
The self-cleavage was 0.18.

Which self-cleavage does the source give for CGUAGAGCUCAAUACAGCGUUGCAAACUGGCUGUGGCUAGACUGCG [G1C C3U C13U G21U G27C C46G] here?
The self-cleavage was 0.06.

With CGUAGAGCUCAACACAGCGUCUCAAAGUGUCUGUGGCUAGACUGCC [G1C C3U G21C G22U G30U] as the variant, how does the self-cleavage read?
The self-cleavage was 0.05.

For CGCAGAGAUCAAAACAGCGUGGCAAAGUGGCUAUGGCUAGACUGCC [G1C C8A C13A G33A], which self-cleavage is on record?
Its self-cleavage is 0.01.

With CGCAGAGAUCAACACAGCGUGGCAAAGUGGCUGUGGAUAGAUUGCC [G1C C8A C37A C42U] as the variant, how does the self-cleavage read?
The self-cleavage was 0.04.

For CGCAGAGAUCAACACACCGUGGCAGAGGGGCUGUGGCUAGAUUGCU [G1C C8A G17C A25G U28G C42U C46U], which self-cleavage is on record?
The self-cleavage was 0.01.

For CGCAGAGAUCAACACAGCUUGGCAAAGUGGCUGUGGCUAGACUGCC [G1C C8A G19U], which self-cleavage is on record?
The self-cleavage was 0.04.

With CGCAGAGAUCAACACAGCGUGGCAAAGUUCCUGUGGCUAGACUUCC [G1C C8A G29U G30C G44U] as the variant, how does the self-cleavage read?
The self-cleavage was 0.02.

Which self-cleavage does the source give for CGCAGAGGUCCACACAACGUAGCAAAGUGGCUGUGGCUAGACUGCC [G1C C8G A11C G17A G21A] here?
The self-cleavage was 0.02.

Which self-cleavage does the source give for CGCAGAGGUCAACACCGCGUGGCAAAGUGGCUGUGGCUAGACUGCC [G1C C8G A16C] here?
The self-cleavage was 0.01.

With CGCAGAGGUCAACACAGCGUGGCAGACUGUCUGUGGCUUGACUUCC [G1C C8G A25G G27C G30U A39U G44U] as the variant, how does the self-cleavage read?
Its self-cleavage is 0.

With CGCAGAGGUCAACAUAGCGUGGCAAAGUGGCUGUGGCUAAACUGCC [G1C C8G C15U G40A] as the variant, how does the self-cleavage read?
The self-cleavage was 0.03.

Which self-cleavage does the source give for CGCAGAGUUCAACUCAACGUGGCAAAGUGGAUGUGGCUAGACUGCC [G1C C8U A14U G17A C31A] here?
The self-cleavage was 0.04.

For CGCAGAGUUCAACACAGCGUGGCAAGGCGACUUUGGCUAGACUGCC [G1C C8U A26G U28C G30A G33U], which self-cleavage is on record?
The self-cleavage was 0.03.

Which self-cleavage does the source give for CGCAGAGUUGAACACAGCGUGGCAAAGUGGCUGUUGGUACACUGCC [G1C C8U C10G G35U C37G G40C] here?
The self-cleavage was 0.

Which self-cleavage does the source give for CGCAGAGUUCAACACAGCGUGGCAAAGUCGCUGUGGCUGGACUGCC [G1C C8U G29C A39G] here?
Its self-cleavage is 0.

Which self-cleavage does the source give for CGCAGAGUACAACACAGCGUGGCAAAGUGGCUGUGGCUAGGCUGCC [G1C C8U U9A A41G] here?
Its self-cleavage is 0.03.

Which self-cleavage does the source give for CGCAGAGCUAAACACUGCGUGGCAAAGUGGCUGGUGCUAGAAUGCC [G1C C10A A16U U34G G35U C42A] here?
Its self-cleavage is 0.01.

Which self-cleavage does the source give for CGCAGAGCUAAACAGAGCGUGGCAAAGUGGCUGUGGCUAGACUGCC [G1C C10A C15G] here?
The self-cleavage was 0.01.

For CGCAGAGCUAAACACAGUGUGGCAAAGUGGCUGAGGCUAGACUGCC [G1C C10A C18U U34A], which self-cleavage is on record?
The self-cleavage was 0.01.

With CGCAGAGCUAAACACAGCGUGGCAAAGUGGCUGUGGGUAGUCUGCC [G1C C10A C37G A41U] as the variant, how does the self-cleavage read?
The self-cleavage was 0.01.

With CGCAGAGCUAAACACAGCGUGGCAAAGUGGCUGUGGCUAGACUGCU [G1C C10A C46U] as the variant, how does the self-cleavage read?
Its self-cleavage is 0.02.

With CGCAGAGCUAAACACACCGUGGCAAAGUGGCUGUGGCUAGAUUGCC [G1C C10A G17C C42U] as the variant, how does the self-cleavage read?
The self-cleavage was 0.02.

Which self-cleavage does the source give for CGCAGAGCUAAACACAGCGUCGCAAAGUGGCUGUGGCUAGACUGGC [G1C C10A G21C C45G] here?
Its self-cleavage is 0.01.

Which self-cleavage does the source give for CGCAGAGCUAAACACAGCGUGGCAAAGUGGCUGGGGCUAGACUGCC [G1C C10A U34G] here?
Its self-cleavage is 0.01.

For CGCAGAGCUGAACGCAGCGUGGCAAAGUGGCUGUAGCUAGACUGCC [G1C C10G A14G G35A], which self-cleavage is on record?
Its self-cleavage is 0.

Which self-cleavage does the source give for CGCAGAGCUGAACACAGCGUGGCAAAGUGGCUGUGGCUAGCCUUCC [G1C C10G A41C G44U] here?
Its self-cleavage is 0.

With CGCAGAGCUGAACACAGCGUGACAAAGUGGCUGUGGCUAGACUGCC [G1C C10G G22A] as the variant, how does the self-cleavage read?
Its self-cleavage is 0.02.

Which self-cleavage does the source give for CGCAGAGCUGAACACAGCGUGGCAAAGUGGCUUUGGCUAGACUGUC [G1C C10G G33U C45U] here?
The self-cleavage was 0.

With CGCAGAGCUUAACUAAGCGUGGCUAAGUGGAUGUAGCUAGACUGCC [G1C C10U A14U C15A A24U C31A G35A] as the variant, how does the self-cleavage read?
The self-cleavage was 0.01.

For CGCAGAGCUUAACACAGCGUGGCAAAGUGGCUGUGGAAAGACUGCC [G1C C10U C37A U38A], which self-cleavage is on record?
The self-cleavage was 0.

For CGCAGAGCUUAACACAUCGUGGCAAAGUGGCUGUGGCUAGACUGCC [G1C C10U G17U], which self-cleavage is on record?
The self-cleavage was 0.02.

For CGCAGAGCUUAACACAGCGUGACAAAGUGGCUGUGGCUAGACUGCC [G1C C10U G22A], which self-cleavage is on record?
The self-cleavage was 0.07.

Which self-cleavage does the source give for CGCAGAGCUCAAAACCGCGUGGCAAAGUGGCUGUGGCUAGACUGCC [G1C C13A A16C] here?
The self-cleavage was 0.03.

For CGCAGAGCUCAAAACAGCGUGGCAAAGUGGCUGUGGCUCGACUGCC [G1C C13A A39C], which self-cleavage is on record?
Its self-cleavage is 0.02.

For CGCAGAGCUCAAAACAGAGUGGCAAAGUGGCUGUGGAUAGACUGCC [G1C C13A C18A C37A], which self-cleavage is on record?
Its self-cleavage is 0.08.

For CGCAGAGCUCAAAACAACGUGGCAAGGUGGCUGUGGCUAGACUGCC [G1C C13A G17A A26G], which self-cleavage is on record?
The self-cleavage was 0.02.

For CGCAGAGCUCAAGACGGUGAUGCAAAGUGGCUGUGGCUAGACUGCC [G1C C13G A16G C18U U20A G21U], which self-cleavage is on record?
Its self-cleavage is 0.01.

Which self-cleavage does the source give for CGCAGAGCUCAAGACAGCGUGCCAAAGUGGCUGUGGCUAGACUGCC [G1C C13G G22C] here?
Its self-cleavage is 0.03.

With CGCAGAGCUCAAUACAGCGUGGCAAAGUGGAGGUGGCUAGACUGCC [G1C C13U C31A U32G] as the variant, how does the self-cleavage read?
The self-cleavage was 0.01.

For CGCAGAGCUCAAUACAGCGUGGCAAAGUGGCAGUGGCUAGACUGCC [G1C C13U U32A], which self-cleavage is on record?
Its self-cleavage is 0.

With CGCAGAGCUCAACAAGGAGUGGCAAAGUGGCUGUGGCUAGACUGCC [G1C C15A A16G C18A] as the variant, how does the self-cleavage read?
The self-cleavage was 0.01.
